Experimental data as given in the supplement of paper PMC3334620.
Whole data set: some 33,000 sequences, median “E-score (-0.5 to 0.5)” near -0.036, cut for the highest 2% near 0.37. Some of the results follow.

Each sequence was assayed against T1, Yer064c (UniProt P40041) (assay: PBM E-score (8-mer binding enrichment) (E-score (-0.5 to 0.5)); higher = stronger / more preferred TF binding; most listed sequences are background and not binding sites). Details: protein concentration: 200 nM; construct: GST-full length.
T1 sequence: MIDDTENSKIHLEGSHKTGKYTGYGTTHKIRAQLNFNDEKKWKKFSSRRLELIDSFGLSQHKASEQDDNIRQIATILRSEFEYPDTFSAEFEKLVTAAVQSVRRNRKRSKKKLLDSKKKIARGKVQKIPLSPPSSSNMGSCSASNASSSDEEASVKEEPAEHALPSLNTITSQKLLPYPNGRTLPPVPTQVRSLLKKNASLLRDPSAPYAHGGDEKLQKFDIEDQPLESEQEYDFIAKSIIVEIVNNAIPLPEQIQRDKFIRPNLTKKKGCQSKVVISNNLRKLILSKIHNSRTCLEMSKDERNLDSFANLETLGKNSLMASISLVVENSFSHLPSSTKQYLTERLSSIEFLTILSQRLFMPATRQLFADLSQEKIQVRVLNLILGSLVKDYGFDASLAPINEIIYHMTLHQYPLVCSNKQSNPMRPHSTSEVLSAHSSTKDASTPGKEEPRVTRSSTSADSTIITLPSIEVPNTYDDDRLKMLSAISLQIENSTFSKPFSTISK
Description: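 Universal 'all 10-mer' protein binding microarrays (Agilent AMADID 015681) probed with GST-tagged S. cerevisiae TFs (full-length or DBD) made by in vitro transcription/translation (PURExpress), about 100-200 nM. Bound TF was detected with fluorescent anti-GST. Each ungapped 8-mer (which stands for itself and its reverse complement) is scored by the PBM enrichment score (E-score), a modified Wilcoxon-Mann-Whitney statistic from -0.5 to +0.5, computed with the Universal PBM Analysis Suite. Scale: above 0.35 generally sequence-specific binding.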

Sequence	PBM E-score
GATAGCAA	0.137
AGGACAAT	-0.0238
ACTGAGCC	0.259
CAGAGAGA	0.057
AAATCCAA	-0.115
GAAGGAGA	-0.0083
ATAACTGG	-0.0408
CTAGCAAG	-0.0416
CAAACCTG	0.0192
GGAGAACA	-0.295
GGTAAAAC	0.0215
ACAATCCG	-0.0699
CTGAGCGA	0.15
AGGGCGCA	-0.31
GAGGCCTA	-0.266
ATGGAGGA	-0.0155
CAGGGTCA	-0.0895
CACGTATC	-0.112
CAAGGTGG	-0.216
CACAACGA	0.151
CCTTGTGA	0.122
CGCTGCCC	-0.166

Sequence	PBM E-score
CGGTTTCA	-0.117
AGAAATTC	-0.117
AGCTAAGG	-0.317
ACCACCAC	-0.0314
AAATCGCA	-0.0346
CAGTGCCG	-0.102
GCAGATTA	0.172
CGGGGTAG	-0.0971
AATTATTC	0.0745
ATACGGCA	-0.154
ACGTGTAT	0.00231
AACACTAG	-0.0103
CCGCGCTA	0.00301
CTAGATAA	0.13
AATTGCAT	-0.00375
ATCCTCTG	-0.14
ATGGCCCC	-0.424
GCGATACA	0.0513
CGAAGTAA	0.029
ACATCTGA	0.0672
ATATCAAT	0.101
CAGAATTA	-0.0545

Sequence	PBM E-score
CAGTGGCA	-0.215
AGGGATGA	0.126
GAGGAAGA	-0.108
CAGCAAGG	-0.047
ACAAATGT	-0.0243
GTTCCATA	-0.205
CACCTACG	0.0159
AGCTGCAT	-0.204
TTCCAAAA	0.0767
CGCGGGTA	0.0646
AACGACTG	0.133
ATACTAGA	0.111
AGTAGGAT	0.044
AAATTTCC	-0.0423
ATGAGTTA	0.288
CATTGTCA	0.0033
GACTTCTC	0.231
CGAAAGCA	-0.111
AGGTAGAC	-0.0676
ATAGGGTC	0.0568
CAACGTGG	-0.0771
ACCATTAC	0.0626

Sequence	PBM E-score
CCAACCCC	-0.111
TGCACCCA	0.0356
TATATCGA	-0.0135
GAGCGGAC	-0.144
ATTCACTA	0.245
CCAGGACC	-0.253
GTGTACCA	-0.105
GATGTGGC	-0.136
CTCGCGTA	-0.00856
GCGTCCCA	-0.214
AAAGCCCT	-0.0999
TAGTATAA	0.116
CGTAAGAC	0.263
ATCTGGGG	-0.125
TACGCAGA	0.1
TGAAACAA	0.0181
AACCTCCG	-0.0192
GGACAACC	-0.249
CGAGGCCC	-0.351
CCCTGAGA	-0.0811
